In paper PMC10726135:
This is one part of the list. At the low end of the ranking, values are background and their order means little. Measured with an extract: partners may take part in the binding.

Biological target: T1, HNF4alpha8 (COS-7 nuclear extract) (UniProt P41235-5)
T1 sequence: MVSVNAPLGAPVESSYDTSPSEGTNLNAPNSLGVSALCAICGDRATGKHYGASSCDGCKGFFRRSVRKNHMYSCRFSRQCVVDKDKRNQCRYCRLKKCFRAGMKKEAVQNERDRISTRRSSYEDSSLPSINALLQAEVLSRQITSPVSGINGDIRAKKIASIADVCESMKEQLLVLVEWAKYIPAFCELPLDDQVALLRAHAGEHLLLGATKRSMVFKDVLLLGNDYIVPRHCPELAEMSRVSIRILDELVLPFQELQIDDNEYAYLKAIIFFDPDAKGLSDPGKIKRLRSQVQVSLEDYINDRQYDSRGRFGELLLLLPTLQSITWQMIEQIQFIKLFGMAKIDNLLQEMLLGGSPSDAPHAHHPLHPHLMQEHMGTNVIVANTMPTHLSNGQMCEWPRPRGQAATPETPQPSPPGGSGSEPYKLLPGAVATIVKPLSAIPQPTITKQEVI
Assay: protein-binding microarray
Conditions: COS-7 nuclear extract on double-stranded Agilent 4x180k PBM; binding buffer, salt, pH and temperature not given; high values mean tight binding; double strand, one strand shown; sequences stand for … in …GCCTAGGGAGATTAGAGTATCGGTCGA

Row | Sequence | binding signal (log2 normalized intensity)
1 | GTCTGGCTGACTAACAAGCTGCCAAACTCT | -1.31
2 | TTATCATTCTAGAGGTCAGAAGTCCAAAAT | 5.5
3 | AAACATAAAGGCAAAGGTCAAGGACTGTTC | 4.18
4 | CTCTCTGATTACACAGGCCTTATAGGGCAT | 0.758
5 | GGGAGGGCACAGGTCAAAAATGATGCCTGA | 1.06
6 | GTGTGGATACGATGACATCATCTGTTTGTA | 0.746
7 | CAAGGGTCAGTTCATTAAAAAAAAAAAAAA | 0.208
8 | TGGCATGTGATAGGCATGCAAACTTTGTTT | 0.31
9 | TCAAAGGGCAGACAGGAACATCTGATTTCC | -1.37
10 | TGGTCCGCCTTCATTCCTAGCCCCACCAAA | 4.25
11 | CCCTCCCTAAATCCAGAGGTATTTGGCCCA | 1.83
12 | TGTTATCTCTGGAGGTCACTGCTGGTGGGT | 2.04
13 | GGTCAGCAATGTGGACTTTGTCCTGTGGGC | 8.67
14 | AAGAGAGGAGGCTGAAGACTTTGCACCAAG | 1.35
15 | TCACTGCTCCAGCCACTCATTCTTGGAATG | -1.3
16 | CGGGAGGCAAGATAAGGGTAATCACCCCCA | 2.63
17 | AATACGCCTCGCCCGAGCTGTGCGGTAGGC | -1.43
18 | TGGAATGTGCTCCCGACTGCTCCACCAGCG | -1.31
19 | AAAGTCTGGATCCGTTAACAGCGGCATTCC | -1.32
20 | GTGCTCCCCCACCCTGTGTCAGCATCTAAA | 3.42
21 | TTGCATAATCTGGCTCCAAAGTCTATGTGT | 2.75
22 | CTGAGTATTATCTTTTTAATCAATAATCTT | 0.839
23 | CACTGCCCATCCCCACTGAAAGTGTGTTAA | 2.02
24 | TATTGGAAGAATGGAATTGCCATTGACTGA | 0.435
25 | GTGTATCAATGGCCCCAGTGCACGTGCATG | 0.168

Row | Sequence | binding signal (log2 normalized intensity)
26 | CTAGATAAGGGAGATGAAAGGGGCCTCAGA | -1.33
27 | GGAGCATTAGTTGACCATTGTGTTAAAGGA | 1.37
28 | ATCGAAAATCCCCCACCATTGTTATCTGAT | 2.58
29 | TGGAGGCCCAGTAAGTCCCACCCACTAGGC | 2.19
30 | TCACAAGAAAGGCAGAAAACTCAGATTCCT | -1.32
31 | CCCGGGAATTCTGGGTAGTGTAGTTCCGCT | -1.33
32 | CATGGGCAAATAAAGCTAACCAGCTCTATC | -1.26
33 | TTTGATCTGATGTACCCAGCACTGTCAGCA | -1.37
34 | GGATTAAGGAGAAGGCTCCCAAGGTATCCT | -1.11
35 | TGCCGCAACATTGTCCAGCAGACACGGGCA | -1.15
36 | GGTCCACCGTGCGCAAACACACCCACCAAC | 1.37
37 | ACAGATGGGCTTGCCTAAGACATGCTCGCA | -1.16
38 | CAGTGTCACAGACTTAGCACAGGAAAGGGC | -0.078
39 | ACCTTGCTGATTACAGGTTGCAGTAAAGAA | -1.04
40 | TATCTCCCAGCTGGAGTCTTCTCTATCCTT | -1.16
41 | AGGGTCTGTTTTCAAACACAGGATTGAACC | 2.94
42 | AGGACAGGGCCCTTCACTATTTTCAAAGGT | -1.41
43 | CTTCCTGACTTGGCCTGAACCAGTTTCTCA | -1.29
44 | ACTCATGAGCCATCCTGAACAAATGTACTG | -1.16
45 | GCTCTTTGTACCGTTTGAACAGCCAAGGAA | 1.43
46 | AAAACACAGCTCACCACCTAGTAAAGGGTG | -1.16
47 | TTGAAGTGACTAAATGAGAAGAAATGATGG | -0.808
48 | AAGACTTCCTGGCCTCTCTGCAAATTTGCC | -0.678
49 | AATGCACTTGTTCCGGATAGCCAAATAGCC | -1.37
50 | ATGCTCAGCCCACCTTTTGGCTGTAGAAAG | -0.224

Row | Sequence | binding signal (log2 normalized intensity)
51 | AGGCATGAGAGGTGCTGCATGGGCTGAGCC | -1.38
52 | TACCGACAACGCCAAGGACCGCCAAGGAAG | -1.31
53 | AACCCGCCCCCTCCCCCTGCCGGCGGCGCA | 6.05
54 | ACAAAGGTGAGCTTTTATCTTAAGTGAGGT | 0.262
55 | ACCGCACTGGAAGCAAGCCCTATTAGGCAT | -1.46
56 | TTTTAAAAGTATACTATATTTGTCCCACAT | 0.612
57 | CTTTGCCCCCCAAGTTGAAGCCATCCTCCC | 5.1
58 | CTCTGACCATGCCTATAAATTGCCTGGCTT | -1.22
59 | TAAGAGCTATCAATGACCCATGTTTGCCCT | 3.57
60 | CTGAGGCAAGTCTCTTTTAGGCTGTCAGCC | -1.29
61 | GGAGGAAAAAGAATGCCTCTTTCAAAACCT | -1.18
62 | GGGGAGAGGGGGTTAAAGGTTATTTGCTCA | 5.15
63 | CACCCTGCTCCAGCCAGAGGCCTTATCTGG | -1.3
64 | GGCATTAATTCTTCTTTGAAAGTTTGGTGG | 1.65
65 | AATGGAAAGAATATGAACTTTGGAAATGCA | 2.22
66 | GGGGAGGCAGGAGTGGGAGGCTGGGGCCTC | -1.37
67 | TACACTACAGGCAAGAGAATCAGAGAGATA | -1.35
68 | ACTCAGTCCTTTCAGGACACCTTCAGGGCT | -1.42
69 | ACCATGCTCTAGTCTTCCTGTCTCCATTGC | 0.264
70 | AGCACAATCAAAGCAATGGCTACCAAGGAG | -1.3
71 | ACTGTGATGGAACAGTGTAACACATGGCAT | 0.238
72 | CAGGGTCAGTGCAATCACGCCTCAAATGAG | -1.37
73 | TAGCCACAATAATGTGATAAGAATTTTGTG | 0.208
74 | CAGTGCAAGGGACCTAGGTGAGCAGGCAGA | -1.35
75 | GTCCTGCCACATCCCCCACACCGAGATAGT | 3.96

Row | Sequence | binding signal (log2 normalized intensity)
76 | GTGAGGCAATGCCTCGCCCTGCTTCGGCTC | -1.48
77 | TTGCCCAGTATTGATGTGAGGGTAGGAGCC | 0.48
78 | AGACAAATGCTTTTGAACACCTGTCCCTAG | -1.01
79 | TGAGTAATTACTATAAATGCTCTGGCCTTT | 1.66
80 | CCTTATCTCGTTCTGATAGCAAGGAGAATT | -0.791
81 | CTTACTTGGCATCATCAAACAAGATTTATC | -0.378
82 | AAGATAAAGGGACAGGGGTCATCAGGGGTC | 3.99
83 | CCTTAGCTTATCGTCCCTTCCCTCTGTCTT | 1.36
84 | AAAATCTTCAAACAACCCTTCGCTAGAGCA | -1.32
85 | GGGTCACGAGACGGTGTCCCTGGCCAATCC | -1.18
86 | AGGGAGTGGCAGCATTGTGCTGAAAAGACT | -1.28
87 | GGAAATTGTCAGTGCCCTATACAGACCTTT | 3.45
88 | ACCCGGGTACTGGAAACTGGGCAAGGTCCA | 4.17
89 | GCTCACATACCACTGACTAAAGCAAGTCAG | -1.26
90 | ACCAGCTGCCTCTTGTGTTCACTCTAGGAA | -0.35
91 | AGACCAAGGAGGCCTCTTCCCCAAACTAGG | -1.24
92 | GCCTGGAGGTACCTAGGGGACATTCTTTAG | -0.678
93 | AGGGTTCAAACTCCAGCTCTGATACTTTCT | 3.93
94 | CTCATTGGCCAGTATCCGCCTTCACTCCCC | 1.76
95 | TTTTTCCCCTGAAATATCATTATCTTGATC | 1.85
96 | AGAGGAGGCCCACACCCCTGGGGAAGGCAG | -1.28
97 | GGTGTGAGAGGGCAAAGGTCACAGCATTAG | 7.08
98 | GACACCGGGTGAAGGTTAAATAGCTCATTA | -0.871
99 | ATCACGTCTCTCTGGGGCCCTCTTCTGCAT | -1.03
100 | GGCTGTGCATATTGGTTTACAGCACTTCAT | 0.0136

Row | Sequence | binding signal (log2 normalized intensity)
101 | TTTGTCAAATGCTTCCAAGAATTTAAGAGA | -0.862
102 | CAGCCCTGCTCCCCGCCTTGGCCTCCCGGA | 2.9
103 | CCAGGATCCAGTCCTCACCCAGAACTTTGA | 2.75
104 | CCCTCCCCTCCCCCCACTCAAAATAGGAGT | 4.5
105 | TCTCATGCCCTTTGCCTCCCTGCATTCCAT | 3.19
106 | TGGATTGCCTCCTAAGGCCTCCAGAAGGAA | -1.3
107 | GCACAGTCAAAAATTTGTGTGTAACATTTG | 1.13
108 | GGGAGTAAAGGTCACGCAGGCCACCTGGTG | 3.93
109 | TTCCTCTCCTGCCCTACTCCCTTAAATAAT | 2.5
110 | ATATTTGCTCTTATTGATTGCCTTTCATGT | 1.24
111 | TCTGATGTCTGCTGAGAGATTCCTCTGCAC | -1.19
112 | TCTAACATTTTTGACCTTCAGCATCTTCAA | 3.81
113 | CCCAGGGTTAGAGGATGACCTTCCCTGCAG | 1.98
114 | GGGTGATAAGAACACAAAAGCCTCTTCAGG | -1.28
115 | GCTGCTTCCCAGTTGCTCTGGAGTGCAGGT | -1.2
116 | TTGGCCTATGGGAAAACAGGCTCAGCAAAG | -1.37
117 | CCCTCAGTACAGGGCGTCCTTGATAAGCAA | -1.23
118 | GACAAAGGGCTCTCTCACCAGAAAAATGTA | -1.45
119 | TTAGTGTGCTCTGGGTCTGTCCTTTGTGTT | 2.61
120 | GGGTCAGAGAAACCTGGCTGCGAGTCCCTG | -1.38
121 | GGTCAATAGTCCAGATACAGATGGCTAGAA | 0.704
122 | CCCAGTCCAAATTCCCTTCCCCTCCTTAGG | 2.3
123 | TCTCTAAGATAAGGATAATCTTCACTTGCC | -0.761
124 | GAATCACTCACTGACCTCTTTTGGATTTTT | 2.04
125 | GCTCTCCTCCTAATCACTGCCCTTTGGTGC | 3.24

Row | Sequence | binding signal (log2 normalized intensity)
126 | CTTCCCCCCTCCCTCCGCAACCTTTACTCC | 5.16
127 | TCCCTCATCTGTCATTCCCTCACTCTAGAA | -0.967
128 | GGACAATCATTGTGCAACCTGGACATTGGC | 2.97
129 | CACTCCAGTGAGACAGAAGTAAAACAGGTA | -1.31
130 | AGGGACTTTGTCCCACAGGAGAAGTGATCC | 2.17
131 | ATGAAAAGTGGAATGCGCTTTCATGAGATG | -1.22
132 | ACATCTTGATTTAGCCCAGTGAGACCCATT | 0.922
133 | GCCACCCCCGTTAATTTCTAACCAATGCAG | 1.52
134 | TAGCCTTTCATCTTCTTAGCCTTTGAACCC | 6.63
135 | TTGTCAAGTGCCCGGATAAACTTCCAGCCA | -1.33
136 | ACTGTAACCTTTGCCCCCCTGGGCTCAAGC | 6.27
137 | TTTTATTTAACTTCTGGGGGCAAGGTACAC | 5.13
138 | TCAAGCACATTCCAGAACCAAGATTTACAT | -1.44
139 | ATCCAGCTGGGTATACTGACTAGGACAGAG | -1.27
140 | TTGGCACTTCTCTCGGCCTTAAGAGTCAAA | -1.4
141 | TTTATTGTTGCTGATATAGAACACTTGTAC | 1.87
142 | TTCTTCCTGTTTGACCTTCGAACCCTTGCC | 9.64
143 | AATAAGAGCTTTGCATAAGCCAGACATTCT | -1.24
144 | ATGGATCATCACAATCACCTGTGAAGTGGT | 0.562
145 | ATGATCCTTGGCTGTGTGACTCACCTTTGC | 3.88
